PubChem BioAssay AID686979 (National Center for Advancing Translational Sciences (NCATS), 2013)
Screen size: about 420,000 compounds; about 50,000 (12%) were called active. Inconclusive means that the source gave no clear call. Such entries were picked first, then a sample of the others. The call rests on the fitted dose curve; in most records, active means well fitted inhibition curve with a large enough effect; inconclusive means small, poorly fitted or top-dose-only effect; inactive means flat fitted curve, though single readings scatter. No potency is given beside an inconclusive call; the fits are too rough. More than one record can exist for a structure, and the calls need not agree.

Assay: qHTS for Inhibitors of human tyrosyl-DNA phosphodiesterase 1 (TDP1): qHTS in cells in presence of CPT; further: nearly all actives have a fitted effect of over 55% in size
Conditions: chicken DT40 Tdp1-/-;hTDP1 cells + 20 nM CPT, ATP luminescence, 48 h; activity change, negative = growth inhibition: at 46.2 µM (top of the series) unless noted
In short: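 Chicken DT40 Tdp1-/- cells complemented with human TDP1, 400 cells/well, exposed to compounds plus 20 nM camptothecin for at least 48 h at 37 C; viability read as ATP content by CellTiter-Glo luminescence.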
On the % scale 0 is the no-effect control and ±100 the full control effect; potency means the concentration at half of the fitted maximal effect; tags describe the fitted curve by direction and shape.

Row | Compound | Potency | activity change, negative = growth inhibition
1 | CCCN1CCC(=O)N(CCSc2ccc(OC)cc2)CC1 | active: 5.8 µM | –
2 | N#Cc1ccc(S(=O)(=O)N2CCN(C(=O)c3cn(-c4ccccc4)nc3-c3cccnc3)CC2)cc1 | inactive | –
3 | Oc1ccc(/C=N/NC(=S)NCc2ccco2)cc1 | inactive | –
4 | CCOc1ccccc1CNC(=O)Cn1ccc2cc(S(=O)(=O)N3CCCCCC3)ccc21 | active: 8.2 µM | –
5 | Cc1cccc(C)c1NC(=O)C1(C)CN(S(C)(=O)=O)CC(=O)N1Cc1cccs1 (stereo unspecified) | – | inconclusive: 1.07% [inhibitor]
6 | Cc1ccc(C)c(Cn2c(=O)n(CCC(=O)NCc3ccc4c(c3)OCO4)c(=O)c3sccc32)c1 | inconclusive [inhibitor, single point] | –
7 | O=C(CC1C[C@H](C(=O)N2CCOCC2)[C@@]2(CCC3CCCC3)c3[nH]c4ccccc4c3CCN2C1=O)NCCc1ccccn1 (stereo partly specified) | active: 20.6 µM | –
8 | C#Cc1ccc([C@@H]2C=C(C(=O)NC3CC3)O[C@H](OCCCCO)C2)cc1 | inconclusive [inhibitor, single point] | –
9 | CN(C)CCCN(C(=O)c1ccc(S(=O)(=O)N2CCc3ccccc3C2)cc1)c1nc2c(F)cccc2s1 | inconclusive [inhibitor, single point] | –
10 | COc1cc2c(cc1OC)C(C)N(C(=O)c1cccs1)CC2 (stereo unspecified) | inconclusive [inhibitor, single point] | –
11 | Cc1cccc(Cc2c(C)nc3nc(SCc4ccccc4Cl)nn3c2C)c1 | active: 23.1 µM | –
12 | Cc1cccc(NC(=O)CCS(=O)(=O)c2ccc(Cl)cc2)c1 | inactive | –
13 | CC(=O)Nc1ccc(CN2CCCCCC2)cc1 | inactive | –
14 | O=C(NCc1ccco1)C1CC(c2c(Cl)cccc2Cl)=NO1 (stereo unspecified) | inconclusive [inhibitor, single point] | –
15 | COc1c(Cl)cc(Cl)cc1C(=O)Nc1ccc(CN2CCCCC2)cc1 | inconclusive [inhibitor, single point] | –
16 | COc1ccc(-c2noc(-c3ccc(C)cc3Cl)n2)cc1OC | inactive | –
17 | CN(C)CCc1cc2c(c3c1ccc1ccccc13)OCO2 | active: 20.6 µM | inactive: -9.49% [at 9.04 µM]
18 | CCC(CC)c1nnc(NC(=O)C2CCN(C(=O)c3ccco3)CC2)s1 | inconclusive [inhibitor, single point] | –
19 | O=C(Cc1ccccc1)N/N=C/c1cccn1-c1ccc([N+](=O)[O-])cc1 | inconclusive [inhibitor, partial curve] | –
20 | CCOc1ccc(C(=O)NCC2CCCO2)cc1 (stereo unspecified) | inactive | –
21 | COC(=O)[C@]12CCCCC=C1N(Cc1ccc3c(c1)OCO3)C(=O)[C@H](CC(=O)NCCC(C)C)C2 | inconclusive [inhibitor, single point] | –
22 | Cc1ccc(C)c(N2CCN(C(=O)c3ccc4nc(-c5ccco5)c(-c5ccco5)nc4c3)CC2)c1 | inconclusive [inhibitor, single point] | –
23 | O=S(=O)(NCC1CCCO1)c1ccc(S(=O)(=O)N(Cc2ccc(F)cc2)C2CCCCC2)cc1 (stereo unspecified) | inconclusive [inhibitor, single point] | –
24 | Cc1ccc(S(=O)(=O)N2CCN(C(=O)COC(=O)/C=C/c3ccc(F)cc3)CC2)c(C)c1 | inconclusive [inhibitor, single point] | –

Row | Compound | Potency | activity change, negative = growth inhibition
25 | Cc1ccc(NC(=O)CCc2ccc(C)o2)c(C)c1 | inconclusive [inhibitor, single point] | –
26 | COc1ccc(CCn2c3c(c(=O)[nH]c2=S)CN(c2ccccc2)CN3)cc1OC | inconclusive [inhibitor, single point] | –
27 | CCc1ccccc1NC(=O)Cn1c(=O)n(CC(=O)NCCc2ccccc2)c(=O)c2ccccc21 | inactive | –
28 | CN(C(=O)c1ccc2c(c1)CCN2S(C)(=O)=O)c1ccccc1 | inactive | –
29 | C/C(CC(=O)Nc1ccc([N+](=O)[O-])cc1)=N\NC(=O)c1ccccc1O | inactive | –
30 | COc1cc(Cl)c(C)cc1NC(=O)CSc1cc(-c2ccccc2)nc(C)n1 | inactive | –
31 | C=CC[C@@H](CC(=O)N[C@H](CO)Cc1ccccc1)C(=O)N[C@H](COC(=O)[C@@H](CC=C)Cc1ccc(F)cc1)Cc1c[nH]c2ccccc12 | active: 13 µM | –
32 | O=C(NCCOC(=O)c1ccc([N+](=O)[O-])cc1)c1cccnc1 | inactive | –
33 | COc1ccc(/C=C(\C#N)C(=O)Nc2ccc3[nH]c(=O)[nH]c3c2)cc1 | inactive | –
34 | COc1ccc(C(=O)c2cn(Cc3cccc(C)c3)c3cc4c(cc3c2=O)OCO4)cc1 | active: 16.4 µM | –
35 | Cc1ccc(Cn2nnnc2CN2CCC(c3nc4ccc(Cl)cc4[nH]3)CC2)cc1 | active: 2.59 µM | –
36 | Cn1c(=O)c2[nH]c(N3CCCCC3)nc2n(C)c1=O | active: 20.6 µM | –
37 | CS(=O)(=O)n1nc(-c2ccco2)nc1NCc1ccccc1Cl | inconclusive [inhibitor, single point] | –
38 | Cc1c(/C=C(\C#N)C(=O)Nc2cccc(Cl)c2)c2ccccc2n1Cc1ccccc1 | inconclusive [inhibitor, single point] | –
39 | O=C1C2C3C=CC(C3)C2C(=O)N1/N=C/c1cc(Br)cc([N+](=O)[O-])c1O (stereo unspecified) | inconclusive [inhibitor, single point] | –
40 | Cc1cc(Br)ccc1OCCCCNC(C)(C)C | inconclusive [inhibitor, single point] | –
41 | Cc1c(C)n(CCc2ccccc2)c2ncnc(NCCO)c12 | inconclusive [inhibitor, single point] | –
42 | Cc1ccc(NC(=O)CN2C(=O)C3C4C=CC(C4)C3C2=O)cc1S(=O)(=O)N(C)C (stereo unspecified) | – | inconclusive: -30.9% [inhibitor]
43 | CCOc1ccccc1N(CC(=O)Nc1ccccc1Br)S(=O)(=O)c1ccccc1 | inconclusive [inhibitor, single point] | –
44 | O=C(c1ccc(N2CCCCS2(=O)=O)cc1)N1CCN(c2ccccc2F)CC1 | inconclusive [inhibitor, single point] | –
45 | COc1cccc(C(=O)Nc2cnn(C(C)C)c2)c1 | inactive | –
46 | O=C(CCN1C(=O)/C(=C\c2ccccc2)SC1=S)NNC(=O)c1cccnc1 | inconclusive [inhibitor, single point] | –
47 | CCN(CC)C(=O)c1c(C)nc2ccccn12 | inactive | –
48 | Cc1ccccc1OCC(=O)Nc1ccccc1NC(=O)c1ccco1 | inactive | –

Row | Compound | Potency | activity change, negative = growth inhibition
49 | Cn1c(=O)c2c(SCC(=O)NCc3ccc(F)cc3)nc(-c3ccccc3Cl)nc2n(C)c1=O | inconclusive [inhibitor, full curve] | –
50 | CCc1ccc(OCc2cccc(C(=O)N/N=C\c3cnn(C)c3C)c2)cc1 | inactive | –
51 | COCCNc1nc(Oc2ccc(Cl)c(Cl)c2)c2sccc2n1 | inconclusive [inhibitor, single point] | –
52 | O=S(=O)(c1ccsc1)N1CC=C(c2ccccc2)CC1 | inconclusive [inhibitor, single point] | –
53 | Cc1ccc(/C=N\NC(=O)COc2ccc(C)cc2[N+](=O)[O-])cc1 | inconclusive [inhibitor, partial curve] | –
54 | Cc1ccc(NS(=O)(=O)c2ccc3c(c2)[C@H]2C=CC[C@H]2[C@@H](c2ccc(F)cc2)N3)cc1C | active: 8.2 µM | –
55 | COc1ccc(C(=O)CSc2nnc(CNc3ccc(C)cc3C)n2Cc2ccco2)cc1 | active: 18.4 µM | –
56 | COc1ccc(N2CCN(C(=O)COC(=O)COc3ccc(C#N)cc3)CC2)cc1 | inactive | –
57 | O=S(=O)(Nc1cc(Sc2ncn[nH]2)c(O)c2ccccc12)c1ccccc1 | active: 1.16 µM | –
58 | CCC(C)c1ccc(NC(=O)c2ccco2)cc1 (stereo unspecified) | inconclusive [inhibitor, single point] | –
59 | Cc1ccc(-n2ncc3c2CC(C)(C)CC3NC(=O)CCCN2CCCCC2=O)cc1 (stereo unspecified) | inconclusive [inhibitor, single point] | –
60 | Cc1ccc(S(=O)(=O)N(C)C)cc1NC(=O)c1c(-c2c(F)cccc2Cl)noc1C | inactive | –
61 | Cc1ccccc1C(=O)Nc1c(C(=O)N(CCN(C)C)Cc2ccco2)oc2ccccc12 | inconclusive [inhibitor, single point] | –
62 | COc1ccccc1N1CCN(C(=O)CCn2nc(C)c(S(=O)(=O)N3CCCC3)c2C)CC1 | inconclusive [inhibitor, single point] | –
63 | O=C(COc1ccc2oc(-c3ccco3)cc(=O)c2c1)N1CCCCC1 | – | inconclusive: -32.2% [inhibitor]
64 | Cc1cc(C)n2c(Nc3ccc4c(c3)OCCO4)c(-c3ccc(C)o3)nc2n1 | inconclusive [inhibitor, single point] | –
65 | O=C(N/N=C/C=C/c1ccccc1)C1CC1(c1ccccc1)c1ccccc1 (stereo unspecified) | inconclusive [inhibitor, single point] | –
66 | Cc1ccc(NC(=O)CSc2nc3ccc(NC(=O)COc4ccc(C)cc4)cc3s2)cc1 | active: 10.3 µM | –
67 | CN(CCOc1ccc(Cl)cc1)C(=O)CN1C(=O)NC2(CCCCC2)C1=O | inconclusive [inhibitor, single point] | –
68 | Cc1ccc(NC(=O)c2c(O)c3ccccc3n(C)c2=O)nc1 | inconclusive [inhibitor, single point] | –
69 | O=C(Cn1nc(CNc2ccc(Cl)cc2)[n+]2c1CCCCC2)c1ccc(Br)cc1 | active: 23.1 µM | –
70 | Cc1ccc(-n2cc(CN3CCN(Cc4nccn4C)CC3)c(-c3cccc(C)c3)n2)cc1 | inconclusive [inhibitor, single point] | –
